Results: the supplement of paper PMC12217912
The list shows a part of the results. The full chains were built here from the parent and the listed change. Values near 0.05 are background.

B1: TEV protease; numbered along this chain (parent)
chain: MGESLFKGPRDYNPISSSICHLTNESDGHTTSLYGIGFGPFIITNKHLFRRNNGTLVVQSLHGVFKVKDTTTLQQHLVDGRDMIIIRMPKDFPPFPQKLKFREPQREERICLVTTNFQTKSMSSMVSDTSCTFPSGDGIFWKHWIQTKDGQCGSPLVSTRDGFIVGIHSASNFTNTNNYFTSVPKNFMELLTNQEAQQWVSGWRLNADSVLWGGHKVFMVKPEEPFQPVKEATQL

Variants of: B1
Experiment: raw area under fraction-flipped curve 0-4 h after induction (AUC4h, not background-subtracted), DNA-recorder readout of cleavage of the substrate (dimensionless); higher = more cleavage of the substrate by the protease variant
Conditions: temperature: 34 °C; time window: 0-4 h after rhamnose induction
Method: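 In vivo DNA recorder in E. coli TOP10(DE3) ΔrhaA at 34 °C. Each TEVp single-site mutant (parent TEVp 0) is paired with a single-site variant of the 7-mer TEVs (canonical ENLYFQ|S). The substrate sits between flexible linkers in a Bxb1-sfGFP-TEVs-SsrA fusion, so cleavage stabilises Bxb1 and speeds flipping of a recombination array, read by NGS. The value is the raw area under the fraction-flipped curve over 0-4 h after rhamnose induction (AUC4h), with ≥20 reads per time point. It is not background-subtracted; inactive controls average about 0.047.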
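Further: Bxb1 expression induced with 0.2% (w/v) L-rhamnose at OD600 near 0.5, cultures sampled hourly, flipped fraction per protease–substrate barcode pair counted by paired-end Illumina sequencing.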

Variant | area with substrate ECLYFQS | area with substrate EDLYFQS | area with substrate EELYFQS | area with substrate EFLYFQS | area with substrate EGLYFQS | area with substrate EHLYFQS | area with substrate EILYFQS | area with substrate EKLYFQS | area with substrate ELLYFQS | area with substrate EMLYFQS | area with substrate EPLYFQS | area with substrate EQLYFQS | area with substrate ERLYFQS | area with substrate ESLYFQS | area with substrate ETLYFQS | area with substrate EVLYFQS | area with substrate EWLYFQS | area with substrate EYLYFQS
L33W | 0.064 | 0.0771 | 0.0364 | 0.0656 | 0.0444 | 0.0687 | 0.05 | 0.061 | 0.0555 | 0.0612 | 0.0612 | 0.0597 | 0.0572 | 0.0592 | 0.0539 | 0.0661 | 0.0592 | –
G35W | 0.0631 | 0.0547 | – | 0.0721 | – | 0.0405 | – | 0.0611 | – | – | – | 0.0496 | 0.0334 | 0.0375 | – | – | 0.0705 | –
I36F | 0.09 | – | 0.0919 | – | 0.0769 | – | 0.079 | 0.0987 | 0.0923 | 0.0974 | 0.0684 | – | 0.0809 | 0.0861 | – | – | 0.0734 | –
I36Q | 0.0566 | – | 0.0653 | – | 0.072 | 0.0663 | 0.0658 | 0.0724 | 0.0633 | 0.0751 | – | 0.0643 | 0.07 | 0.0777 | – | 0.0588 | 0.0657 | –
G37M | 0.063 | 0.0922 | – | – | 0.0718 | 0.0798 | – | 0.0704 | – | 0.0805 | – | 0.0963 | 0.0907 | 0.0741 | 0.0724 | 0.0788 | 0.0957 | 0.0885
G37V | 0.0662 | 0.0866 | 0.129 | – | – | 0.092 | – | 0.0795 | 0.0818 | – | 0.0934 | 0.102 | 0.0919 | 0.0638 | 0.111 | 0.0741 | 0.084 | 0.104
F38N | 0.0959 | 0.0931 | 0.098 | – | – | – | 0.0832 | – | – | 0.0676 | – | 0.0834 | 0.0721 | – | – | – | – | –
F38T | 0.084 | 0.141 | – | – | 0.0817 | 0.0815 | 0.06 | 0.0762 | 0.0739 | – | 0.109 | 0.097 | 0.0802 | 0.0936 | – | 0.0622 | 0.0803 | 0.103
G39H | 0.0365 | – | 0.0448 | – | 0.0515 | – | 0.0406 | 0.0416 | 0.0449 | 0.0457 | 0.0532 | 0.0377 | 0.0536 | 0.0528 | 0.0516 | 0.0411 | 0.073 | 0.0501
G39N | 0.0455 | 0.0478 | – | – | 0.048 | – | – | 0.0424 | – | – | – | 0.0255 | 0.0329 | 0.0344 | 0.0393 | 0.0419 | 0.0409 | 0.0423
G39T | 0.1 | 0.0286 | 0.0336 | 0.0382 | 0.0514 | – | 0.047 | 0.04 | 0.0492 | 0.0411 | 0.0561 | 0.0508 | 0.0332 | 0.0345 | – | 0.0538 | 0.0948 | –
P40Y | 0.0948 | – | 0.163 | 0.0892 | 0.0933 | 0.104 | 0.124 | 0.108 | – | 0.139 | 0.0819 | 0.109 | 0.0919 | 0.0945 | 0.133 | 0.145 | 0.0842 | –
I42Q | 0.0477 | – | – | – | – | – | – | 0.0485 | 0.0309 | 0.0421 | – | 0.0542 | 0.037 | 0.0463 | 0.0357 | – | 0.0394 | 0.0424
I43F | 0.0848 | 0.0993 | – | 0.0677 | 0.084 | 0.0815 | 0.071 | 0.0784 | 0.0743 | 0.0805 | 0.101 | 0.0717 | 0.0757 | 0.0768 | 0.086 | 0.0838 | 0.0654 | 0.0671
I43G | 0.0485 | 0.0485 | – | 0.055 | 0.0591 | – | 0.0505 | 0.0587 | 0.0461 | 0.0545 | 0.0279 | 0.0593 | 0.0636 | 0.064 | – | 0.0449 | 0.0455 | –
T44E | 0.0178 | 0.04 | 0.0437 | – | 0.0369 | 0.043 | 0.0437 | 0.0495 | 0.0412 | 0.0415 | – | – | 0.0288 | 0.0598 | – | 0.0403 | 0.0226 | –
T44G | 0.0812 | 0.087 | – | 0.0692 | 0.0667 | 0.0671 | – | 0.0721 | 0.0624 | – | 0.0868 | 0.0583 | 0.08 | 0.0461 | 0.0815 | 0.0768 | 0.061 | –
T44H | 0.0468 | 0.0582 | 0.057 | 0.0766 | – | – | – | 0.0454 | 0.052 | – | 0.0524 | 0.0687 | 0.0324 | 0.0583 | 0.0563 | 0.0584 | 0.0362 | 0.0676
N45C | 0.118 | 0.119 | 0.14 | – | – | 0.096 | – | – | 0.113 | 0.123 | 0.117 | – | 0.127 | 0.105 | – | 0.0932 | 0.105 | –
N45F | 0.0657 | 0.0625 | 0.0638 | 0.0703 | – | 0.0334 | 0.0638 | 0.0721 | 0.0605 | 0.064 | – | – | 0.0528 | 0.0559 | – | 0.0627 | 0.0598 | 0.0444
N45M | 0.0314 | 0.0664 | 0.0721 | 0.0785 | 0.0543 | 0.0945 | 0.0562 | 0.0701 | 0.0604 | 0.0536 | 0.0706 | 0.0621 | 0.0489 | 0.0641 | 0.0616 | 0.064 | 0.0582 | –
N45R | 0.0633 | 0.0651 | 0.0568 | – | 0.0586 | 0.0582 | 0.0571 | 0.0639 | 0.0691 | 0.0603 | 0.0569 | 0.0577 | 0.0704 | 0.0611 | – | 0.0519 | 0.039 | 0.0504
K46I | 0.0831 | 0.0879 | 0.0726 | – | 0.0608 | 0.0688 | 0.0643 | 0.0509 | 0.0682 | 0.0624 | – | 0.0634 | 0.0626 | 0.0582 | 0.0738 | 0.0589 | 0.0854 | 0.0621
K46V | 0.0571 | 0.102 | – | – | 0.0635 | 0.0759 | – | 0.0542 | 0.0784 | 0.123 | – | 0.0839 | 0.0771 | 0.0749 | 0.0646 | 0.0632 | – | 0.0787
K46W | 0.0584 | 0.0678 | 0.0602 | 0.0468 | 0.0552 | 0.0624 | 0.0526 | 0.0405 | 0.0574 | – | 0.0563 | 0.0683 | 0.0602 | 0.0651 | – | 0.0242 | 0.0619 | 0.0554
